Reference: PMC4336329 (PLoS ONE, 2015)
The campaign covered roughly 310,000 compounds. About 2,200 (0.71%) showed an effect of 50% or more. Effects have a minus sign here. The list shows a part of the results.

target: human ether-à-go-go-related gene (hERG) potassium channel (human, UniProt Q12809); assay: primary screen, population patch clamp on CHO cells stably expressing hERG
Sequence (Q12809 whole entry, looked up): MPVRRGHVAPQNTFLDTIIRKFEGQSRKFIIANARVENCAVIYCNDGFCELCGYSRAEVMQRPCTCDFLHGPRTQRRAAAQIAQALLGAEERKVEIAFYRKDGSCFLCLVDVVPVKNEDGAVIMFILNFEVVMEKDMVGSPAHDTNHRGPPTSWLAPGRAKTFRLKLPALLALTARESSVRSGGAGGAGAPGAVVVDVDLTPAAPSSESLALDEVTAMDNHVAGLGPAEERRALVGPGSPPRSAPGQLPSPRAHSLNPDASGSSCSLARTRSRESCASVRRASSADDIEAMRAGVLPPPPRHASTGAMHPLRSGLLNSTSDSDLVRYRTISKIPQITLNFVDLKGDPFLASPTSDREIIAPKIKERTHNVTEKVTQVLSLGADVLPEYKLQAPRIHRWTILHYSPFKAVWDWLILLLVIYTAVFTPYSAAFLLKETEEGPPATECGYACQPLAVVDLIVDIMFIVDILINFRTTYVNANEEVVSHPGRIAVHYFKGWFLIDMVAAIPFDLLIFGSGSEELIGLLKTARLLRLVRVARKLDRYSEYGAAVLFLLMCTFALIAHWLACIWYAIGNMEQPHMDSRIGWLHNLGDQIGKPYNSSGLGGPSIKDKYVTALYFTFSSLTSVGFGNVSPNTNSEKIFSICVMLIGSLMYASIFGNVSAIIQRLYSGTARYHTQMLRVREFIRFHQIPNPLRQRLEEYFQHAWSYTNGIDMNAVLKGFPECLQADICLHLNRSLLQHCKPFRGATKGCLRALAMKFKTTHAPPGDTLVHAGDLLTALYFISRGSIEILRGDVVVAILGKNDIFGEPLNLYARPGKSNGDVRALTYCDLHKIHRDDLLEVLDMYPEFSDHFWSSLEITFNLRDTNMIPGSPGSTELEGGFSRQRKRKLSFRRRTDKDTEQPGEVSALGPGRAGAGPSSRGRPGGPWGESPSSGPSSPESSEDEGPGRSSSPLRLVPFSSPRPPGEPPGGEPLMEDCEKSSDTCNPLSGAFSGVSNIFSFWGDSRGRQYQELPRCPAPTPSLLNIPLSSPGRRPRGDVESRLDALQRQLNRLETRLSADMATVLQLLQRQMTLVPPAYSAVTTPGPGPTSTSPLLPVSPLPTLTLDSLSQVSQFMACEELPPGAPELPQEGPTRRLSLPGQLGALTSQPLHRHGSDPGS

| SMILES | hERG current change (%, negative = inhibition) at 1uM [%] |
| --- | --- |
| Cc1ccn(C)c(=N)c1 | 17.6 |
| O=C(c1ccc(Cl)cc1)C1CCCN(Cc2ccc3c(c2)OCCO3)C1 (stereo not shown) | -17.2 |
| COCCNC(=O)CSc1nc2ccc(N3CCOCC3)cc2c(=O)n1Cc1ccc(OC)cc1 | -17 |
| Cc1ccc(C)c(S(=O)(=O)NCC(=O)Nc2sc3c(c2C(N)=O)CCC(C)C3)c1 (stereo not shown) | 11 |
| COC(=O)CN1C(=O)COc2ccc(S(=O)(=O)N3CCCC3)cc21 | 10.2 |
| Cc1c(C=C2C(=O)c3ccccc3C2=O)cc(C#N)n1C | 12.8 |
| COc1cc(C(=O)NCC(c2cccnc2)N2CCN(C)CC2)cc(OC)c1OC (stereo not shown) | 17.4 |
| Cc1ccccc1S(=O)Cc1ccc(C(=O)NC2CC2)o1 (stereo not shown) | -1.13 |
| NC(=O)CC(NC(=O)c1ccccc1)c1ccc(NC2CCCC2)c([N+](=O)[O-])c1 (stereo not shown) | 6.23 |
| C#CCNc1c2c(nc3ncnn13)CC(C)CC2 (stereo not shown) | 7.52 |
| CCN1CCN(C(=S)Nc2ccc(Cl)cc2Cl)CC1 | 16.4 |
| Cc1ccccc1NC(=O)CSC1=C(C#N)C(c2ccsc2)CC(=O)N1 (stereo not shown) | -0.704 |
| N#C/C(=C\c1c(N2CCCCC2)nc2ccccn2c1=O)C(=O)NC1CCS(=O)(=O)C1 (stereo not shown) | 4.73 |
| COc1ccc(/C=N/NC(=O)c2c([N+](=O)[O-])c(C)nn2C)cc1 | 13.2 |
| CC(C)c1ccc(NC(=O)C2CCN(S(=O)(=O)c3ccc4c(c3)NC(=O)CO4)CC2)cc1 | 11.3 |
| CCOC(Cn1c(SCC(=O)Nc2cc(C)on2)nc2ccccc2c1=O)OCC | 11.5 |
| COC(=O)C1=C(C)Nc2ccc(C)cc2S1 | 4.01 |
| COc1ccc(N2CC(NC(=O)N3CCc4ccccc43)CC2=O)cc1OC (stereo not shown) | 8.85 |
| CC(c1nccs1)N(C)c1nc2nonc2nc1NC1CC1 (stereo not shown) | 10.6 |
| Cc1occc1C(=O)N/N=C/C(Br)=C\c1ccccc1 | 8.24 |
| CCN(CCCNS(=O)(=O)c1ccc2c(c1)oc(=O)n2C)c1cccc(C)c1 | 11.5 |
| COc1ccc(S(=O)(=O)N2CCC(NC(=O)Nc3ccc(C)cc3)CC2)cc1 | -1.05 |
| CC(=O)Nc1ccc(S(=O)(=O)N(C2=NCC(C)S2)c2ccccc2)cc1 (stereo not shown) | 0.86 |
| CN(c1ccc(OCC(=O)N2CCC(C(N)=O)CC2)cc1)S(=O)(=O)c1cccs1 | 8.43 |
| Cc1cc(C)c2nc(SCC(=O)NNC(=O)c3ccco3)c(C)cc2c1 | 27.5 |
| COc1ccc(/C=C2/SC(=S)N(n3c(C)ccc3C)C2=O)cc1 | 12.7 |
| CC1(C)Cc2nc3scc(NC(=O)c4ccccc4)c3cc2CO1 | 12.6 |
| Nc1ccccc1Nc1cc(-c2ccccc2)nn1-c1cccc(Cl)c1 | 13.9 |

| SMILES | hERG current change (%, negative = inhibition) at 1uM [%] |
| --- | --- |
| Cc1cccc(-c2oc3ccccc3c2-c2ccc3c(c2)OCO3)c1 | 17.4 |
| CC(C)(C)OC(=O)NCCCCC1=CC2=CC(=O)C(C)(OC(=O)c3ccco3)C(=O)C2=CO1 (stereo not shown) | 11 |
| CC1Cc2ccccc2N1C(=O)CSC1=NCCS1 (stereo not shown) | 7.52 |
| Cc1c(NC(=O)c2ccco2)cccc1C(=O)NN1C(=O)c2ccccc2C1=O | 6.72 |
| C=CCOCC(O)CS(=O)(=O)Cc1ccc(Cl)cc1 (stereo not shown) | 13.9 |
| CN1CCN(Cc2nc3ccccc3c(=O)n2Cc2nc(-c3ccccc3F)cs2)CC1 | -5.99 |
| CCC(c1nnnn1Cc1ccc2c(c1)OCO2)N1CCN(c2ccc(F)cc2)CC1 (stereo not shown) | -4 |
| CCCc1cnc(N2CCN(C(=O)c3ccc(F)cc3)CC2)nc1 | 1.22 |
| CCN(C(=O)CSc1nnc(-c2ccccc2Cl)n1C1CCCC1)C1CCS(=O)(=O)C1 (stereo not shown) | 12.2 |
| O=C1C2C3C=CC(C4CC34)C2C(=O)N1/N=C/c1ccc(-c2cccc([N+](=O)[O-])c2)o1 (stereo not shown) | -1 |
| CCC(=O)c1ccc(OCC(=O)N(CC)CC(=O)Nc2ccccc2OC)cc1 | 10.4 |
| Cc1cccc(NC(=O)CCCN2C(=O)c3ccccc3C2=O)n1 | 10.1 |
| Cc1onc(-c2ccccc2)c1C(=O)N=C(N)c1ccc(Cl)cc1 | 7.47 |
| Cc1ccc(C(=O)COC(=O)CCN2C(=O)C3C4C=CC(C5CC45)C3C2=O)cc1 (stereo not shown) | -0.904 |
| COc1ccc(-c2csc3nc(C)n(-n4cccc4)c(=O)c23)cc1OC | 5.06 |
| CCn1ccnc1CN(C)C(=O)C1CCC(=O)N(Cc2cccc(F)c2)C1 (stereo not shown) | 10.1 |
| CC(=O)Nc1ccc(NC(=O)Cc2ccc(F)cc2)cc1 | 10.9 |
| C=CCNC(=O)CC(=O)N/N=C/c1cccs1 | -1.62 |
| COc1ccc(CN2C(=O)CC(C(=O)NCCc3ccc(S(N)(=O)=O)cc3)SC2=Nc2ccccc2)cc1 (stereo not shown) | 17.9 |
| COC(=O)c1c(NC(=O)COC(=O)c2ccccc2O)sc2c1CCCCC2 | 5.97 |
| CC(=O)N1CCCc2cc(S(=O)(=O)NC(C(=O)NCc3ccc(C)cc3)C(C)C)ccc21 (stereo not shown) | 3.08 |
| Cn1nnnc1SCC(=O)Nc1cc(C(F)(F)F)ccc1N1CCOCC1 | -0.0845 |
| COc1ccccc1N1CCN(C(=O)CSc2nnc(-c3ccoc3C)o2)CC1 | 0.342 |
| COc1ccc(C)cc1S(=O)(=O)N1CCC2(CC1)OCCN2S(=O)(=O)c1ccccc1 | 10.7 |
| CN(C)CCN(C(=O)C1CCCCC1)c1nc2cc3c(cc2s1)OCO3.Cl | 14.3 |
| Cc1ccccc1-c1nc(CS(=O)(=O)CC(=O)NCCCN2CCN(C)CC2)c(C)o1 | 4.32 |
| COCCNC(=O)CC(=O)N/N=C/c1cccc(C(=O)OC)c1 | 14.5 |
